Values joined by “and” are separate entries in the source; they are usually repeats but may differ in a detail not shown here. Identical values can stand only once. Out of some 16,000 compounds screened, about 40 (0.2%) were called active. Not shown: some 1% with an inconclusive outcome. Calls follow the shape of the dose curve; as a rule, active = well fitted activation curve with a large enough effect; inconclusive = small, poorly fitted or top-dose-only effect, or another doubt; inactive = no such curve, though single readings can be large or run the other way. This is one part of the list.
% is scaled to controls: 0 for no effect and ±100 for the full control effect; potency is read from the fitted curve at half-maximal effect.

In the experiment the target is Rap guanine nucleotide exchange factor 4 (Homo sapiens) (UniProt Q8WZA2). The experiment in a line: Validation qHTS for agonist of cAMP-regulated guanine nucleotide exchange factor 4 (EPAC2).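 As to activation: exchange makes BODIPY-GDP fluorescence drop when released from Rap1B; series mostly up to about 150 µM.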 To be noted: EPAC2 Rap1B BODIPY-GDP exchange, fluorescence; activation: stronger effect = higher value. The gist of the method: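 Fluorescent exchange assay: 100 nM EPAC2 with 250 nM RAP1B-BODIPY-GDP and 50 uM GDP; compound added, 5 min at room temperature, then read (ex 480/em 540 nm) every 5 min for 30 min. Normalized to 6.5 mM cAMP agonist control.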
Chain of UniProt Q8WZA2 (Q8WZA2 whole entry, looked up): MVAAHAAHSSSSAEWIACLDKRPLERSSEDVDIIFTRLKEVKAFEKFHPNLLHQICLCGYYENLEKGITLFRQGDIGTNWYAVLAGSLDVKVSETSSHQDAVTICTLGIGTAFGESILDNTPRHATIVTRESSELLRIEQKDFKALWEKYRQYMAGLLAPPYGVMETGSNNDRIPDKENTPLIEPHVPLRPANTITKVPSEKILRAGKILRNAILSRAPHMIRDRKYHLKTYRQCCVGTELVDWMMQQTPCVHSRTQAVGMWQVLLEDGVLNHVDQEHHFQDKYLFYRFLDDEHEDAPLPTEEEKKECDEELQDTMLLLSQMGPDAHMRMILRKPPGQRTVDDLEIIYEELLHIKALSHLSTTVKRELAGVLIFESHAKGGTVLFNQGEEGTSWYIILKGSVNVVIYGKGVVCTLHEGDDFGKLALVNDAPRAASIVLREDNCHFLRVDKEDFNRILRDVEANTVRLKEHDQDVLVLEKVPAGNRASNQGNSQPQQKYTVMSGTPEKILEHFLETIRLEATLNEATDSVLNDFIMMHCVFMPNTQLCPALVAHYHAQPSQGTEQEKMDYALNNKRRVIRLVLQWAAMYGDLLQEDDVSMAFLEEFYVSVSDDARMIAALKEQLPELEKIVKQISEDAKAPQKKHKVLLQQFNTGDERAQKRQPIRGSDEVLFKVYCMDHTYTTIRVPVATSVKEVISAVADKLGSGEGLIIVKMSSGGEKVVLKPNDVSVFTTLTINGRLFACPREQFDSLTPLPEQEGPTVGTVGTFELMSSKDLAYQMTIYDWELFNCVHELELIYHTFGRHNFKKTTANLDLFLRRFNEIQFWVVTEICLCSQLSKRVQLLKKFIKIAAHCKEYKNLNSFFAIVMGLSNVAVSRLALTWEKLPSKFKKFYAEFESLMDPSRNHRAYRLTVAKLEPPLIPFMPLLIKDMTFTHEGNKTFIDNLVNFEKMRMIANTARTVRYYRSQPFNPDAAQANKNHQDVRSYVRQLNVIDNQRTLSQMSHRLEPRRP
For orientation: In qHTS, concentration-response curves come from the screen itself.
Take `CN(CCO)C(=O)c1cn(C2CCCN(Cc3cccc4ccccc34)C2)nn1` (stereo not given): the activation was inactive: -8.25%.

In the case of `O=C(Nc1cccc(F)c1)N1CCC2(CC1)CCN(C(=O)c1cccc(F)c1)CC2`, the activation is inactive: -10.9%.

Consider `CC(C)C[C@H](NC(=O)CNC(=O)[C@H](Cc1ccc(O)cc1)NC(=O)[C@H](CO)NC(=O)[C@H](Cc1c[nH]c2ccccc12)NC(=O)[C@H](Cc1cnc[nH]1)NC(=O)[C@@H]1CCC(=O)N1)C(=O)N[C@@H](CCCN=C(N)N)C(=O)N1CCC[C@H]1C(=O)NCC(N)=O` (stereo in doubt), for which the activation was inactive: -19.6%.

For the compound `CC(C)C[C@@H](COc1ccccc1)N1CCN(C)CCC1=O`, the activation was inactive: 3.89%.

Regarding `COc1ccc2[nH]cc(CCNc3ccnc(-c4ccoc4)n3)c2c1`, the activation is inactive: -15.8%.

Turning to `CC1(C)S[C@@H]2[C@H](NC(=O)Cc3ccccc3)C(=O)N2[C@H]1C(=O)O` (tested in a mixture with another compound), the activation was inactive: -5%.

`CNc1ncnc2ccc(-c3ccccc3OC)cc12`: the activation is inactive: -7.16%.

In the case of `COc1c2occc2c(OC)c2c(=O)cc(C)oc12`, the activation was inactive: -20% and inactive: -5.35%.

For `CC(C)c1c(C(=O)NCCN2CCOCC2)cnn1-c1nccc(-c2ccco2)n1`, the activation was inactive: -10.9%.

Consider `O=C(N[C@@H]1c2ccccc2C2(CCN(Cc3c(O)ccc4ccccc34)CC2)[C@H]1O)c1ccccc1`, for which the activation is inactive: 4.49%.

Consider `Cc1ccc2c(c1)C(=O)C1(O)CCN(c3ccccc3)C1=N2` (stereo not given), for which the activation was inactive: -161%.

In the case of `CCCCCCCCCCCCCCCCCC(=O)OCCO`, the activation is inactive: -6.86%.

Regarding `N#Cc1ccc(CN2CC[C@@]3(CCCN(C(=O)c4cc(C(F)(F)F)cc(C(F)(F)F)c4)C3)C2)cc1`, the activation was inactive: -20.6%.

As to `CC[C@H](C)C(=O)O[C@H]1CCC=C2C=C[C@H](C)[C@H](CC[C@@H]3C[C@@H](O)CC(=O)O3)[C@H]21`, the activation was inactive: -25.7% and inactive: -77.4%.

As to `COc1ccc(CN2Cc3ccccc3OC(c3ccccc3OC)C2)c(O)c1` (stereo not given), the activation was inactive: 1.89%.

Regarding `COCC(=O)N1CCC2(CC1)CCN(C(=O)Nc1cccc(C#N)c1)CC2`, the activation was inactive: 5.3%.

Consider `C[C@@H]1CN(Cc2ccc3c(c2)CN(Cc2cccn2-c2cccnc2)CCO3)C[C@H](C)O1`, for which the activation is inactive: 2.92%.

As for `CC1(C)CCC[C@]2(C)C3CC(=O)O[C@@]3(C)CC[C@H]12` (stereo not given in full), the activation is inactive: -13.5%.

For the compound `COc1ccc(CCN(C)CCCC(C#N)(c2cc(OC)c(OC)c(OC)c2)C(C)C)cc1OC` (stereo not given), the activation is inactive: -19.6% and inactive: -16% and inactive: -13.1%.

Take `Clc1ccccc1-c1nc(-n2ccnc2)c2ccccc2n1`: the activation was inactive: -3.07%.

`COc1ccccc1CN1CC[C@@]2(CCCN(C(=O)c3ccco3)C2)C1`: the activation is inactive: -13.2%.

As for `Cc1noc(C)c1C(=O)N1CCC2(CCCN(C(=O)Nc3cccc(C#N)c3)C2)CC1`, the activation was inactive: -14%.

On to `Nc1cc(C(Cl)=C(Cl)Cl)c(S(N)(=O)=O)cc1S(N)(=O)=O`, for which the activation was inactive: -14.9% and inactive: -2.53% and inactive: 1.09%.

`Cc1ccc(CN2C[C@H](Sc3ccccn3)C[C@H]2C(=O)Nc2ccc3sc(C)nc3c2)c(C)c1`: the activation was inactive: -1.6%.

With `COc1ccccc1CN1CCCC2(CCN(C(=O)c3cc(C(F)(F)F)cc(C(F)(F)F)c3)CC2)C1`, the activation was inactive: 0.0138%.

On to `OC1(c2ccc3c(c2)CN(Cc2nccs2)CCO3)CCN(c2ccccc2F)CC1`, for which the activation is inactive: 10.5%.

As to `COc1ccccc1CN1CCCC2(CCN(C(=O)c3ccco3)CC2)C1`, the activation is inactive: -6.92%.

With `COc1ccc(-c2nc3cnc(Nc4ccccc4)nc3n(Cc3cccs3)c2=O)cc1`, the activation is inactive: 1.12%.

For the compound `CN(C)c1ncc2nc(-c3ccc(F)cc3)c(=O)n(C)c2n1`, the activation is inactive: -9.61%.

Take `Cn1ccc2cc(NC(=O)Nc3cccnc3)ccc21`: the activation is inactive: -28.3%.

Turning to `COc1ccc(SCCN2CC[C@@H](C)CCC2=O)cc1`, the activation is inactive: -6.06%.

For `CN1C(CSCC(F)(F)F)Nc2cc(Cl)c(S(N)(=O)=O)cc2S1(=O)=O` (stereo not given), the activation was inactive: -5.53%.

Regarding `O=CC(=O)c1ccc(Cl)cc1`, the activation was inactive: -27.5%.

For `CC(=O)[C@]1(O)Cc2c(O)c3c(c(O)c2[C@@H](O[C@H]2C[C@H](N)[C@H](O)[C@H](C)O2)C1)C(=O)c1ccccc1C3=O`, the Potency was active: 100 µM.

For the compound `O=S1(=O)CCO[C@H]2Cc3ccccc3[C@H]2N1Cc1cccc(Cl)c1`, the activation is inactive: -14.9%.

In the case of `Cc1c(C(=O)N(C)Cc2nccs2)sc2ncnc(NCC3CCCO3)c12` (stereo not given), the activation is inactive: -7.19%.

As for `Cc1cc(-c2ccnc(-n3ncc(C(=O)NC(C)(C)CO)c3C3CC3)n2)c(C)s1`, the activation was inactive: -4.84%.

Turning to `Cn1c(=O)c(-c2ccc(F)cc2)nc2cnc(OCc3ccccc3)nc21`, the activation is inactive: -8.53%.

On to `CCNc1ncc2nc(-c3ccccc3)c(=O)n(C3CC3)c2n1`, for which the activation was inactive: -11.7%.

Consider `O=C(O)C#CC(=O)O`, for which the activation is inactive: -17.7%.

As for `CN(C)c1ncc2nc(-c3ccc(Cl)cc3)c(=O)n(Cc3ccc(F)cc3)c2n1`, the activation was inactive: 2.81%.

As for `COC(=O)c1ccccc1C(=O)NCC1Cc2cc(-c3nc(C)cnc3C)ccc2O1` (stereo not given), the activation is inactive: -20.8%.

In the case of `COc1ccc(CNc2ccnc(-c3ccc(N(C)C)cc3)n2)c(OC)c1`, the activation was inactive: 2.01%.

`COc1cccc(CNc2ncnc3sc(C(=O)N4CC5CCC4C5)c(C)c23)c1OC` (stereo not given): the activation was inactive: -0.672%.

Consider `C=C1[C@@H](O)[C@H](CC(C)C)N(Cc2ccccc2Br)S1(=O)=O`, for which the activation was inactive: -22.2%.

For `Cc1cc[n+](CC(=O)c2ccccc2)c2ccccc12`, the activation is inactive: -6.37%.

With `N=c1c[n+](N2CCOCC2)[n-]o1`, the activation was inactive: -22.3%.

Turning to `O=C(c1cc(C(F)(F)F)cc(C(F)(F)F)c1)N1CCC2(CCN(Cc3ccccc3)CC2)CC1`, the activation is inactive: -13.5%.

In the case of `CCN(c1ccccc1)c1cc(NC)[n+](C)c(C)n1`, the activation is inactive: -3.88%.

On to `CN1CCN(CCCN2c3ccccc3Sc3ccc(Cl)cc32)CC1`, for which the activation was inactive: -7.1% and inactive: -31.1% and inactive: -8.09%.

As for `Clc1ccc2nc(-c3ccccc3)[nH]c2c1`, the activation was inactive: -8.34%.

`CCCCNC(=O)[C@@H]1CC=C[C@@H]2CCN(Cc3ccc(Cl)c(Cl)c3)C(=O)[C@@H]21`: the activation was inactive: -4.78%.

Turning to `O=[N+]([O-])c1ccc2c(c1)C=CC2`, the activation was inactive: -0.0666%.

Turning to `O=C1c2ccccc2C(=O)c2c1ccc(O)c2O`, the activation was inactive: -30% and inactive: -2.78%.

`CC(=O)OC1CC2C(C)(C)C(O)CC[C@@]2(C)C2CC[C@@]3(C)C(c4ccoc4)OC(=O)C4O[C@@]43[C@]12C` (stereo not given in full): the activation is inactive: 2.19%.

For the compound `CCOC(=O)C[C@H]1c2ccc(C(F)(F)F)cc2S(=O)(=O)N1c1ccccc1`, the activation was inactive: -44.2%.

`COc1cccc(N2[C@@H](CC(=O)O)c3ccccc3S2(=O)=O)c1`: the activation was inactive: -2.1%.

Regarding `Nc1nc(=S)c2[nH]cnc2[nH]1`, the activation is inactive: -2.84% and inactive: 7.55%.

Turning to `O=c1c2cc(O)c(O)cc2oc2cc(O)c(C3OC(CO)C(O)C(O)C3O)c(O)c12` (stereo not given), the activation is inactive: -7.25%.

As for `O=C(Nc1ccccc1)N1CC[C@@]2(CCCN(C(=O)c3cccc(F)c3)C2)C1`, the activation is inactive: 2.73%.

Consider `COC(=O)c1cc(CNC(=O)c2ccncc2)cc(NC(=O)c2ccccc2Cl)c1`, for which the activation is inactive: -9.97%.

As for `CCCC(=O)Nc1ncnc2c1ncn2[C@@H]1O[C@@H]2COP(=O)(O)O[C@H]2[C@H]1OC(=O)CCC`, the activation was inactive: 3.32%.

Regarding `O=c1c(CCc2ccccc2)nc2cnc(N3CCNCC3)nc2n1-c1ccccc1`, the activation was inactive: 8.18%.

`COCCn1c(=O)c(-c2ccc(F)cc2)nc2cnc(Oc3cccc(Cl)c3)nc21`: the activation is inactive: -5.94%.

Consider `N#Cc1cccc(NC(=O)N2CC[C@@]3(CCCN(C(=O)c4ccncc4)C3)C2)c1`, for which the activation was inactive: -25.9%.

As for `O=C(c1ccncc1)N1CCC2(CCCN(c3ccccn3)C2)CC1`, the activation is inactive: -18.9%.

On to `COc1ccc2c(c1)-c1nc(-n3ncc(C(=O)NC(C)(C)CO)c3C3CC3)ncc1CC2`, for which the activation is inactive: -16%.

For `CN(C)CCC[C@@]1(c2ccc(F)cc2)OCc2cc(C#N)ccc21`, the activation is inactive: -1.24% and inactive: -12.6%.

As for `CC(=O)N[C@@H](CCC(=O)O)C(=O)O`, the activation was inactive: 11.5%.

On to `Cc1ccccc1-c1ccc2ncnc(NCc3cccs3)c2c1`, for which the activation was inactive: -8.39%.

For the compound `CC1=CC(=O)NS(=O)(=O)O1`, the activation was inactive: -1.09%.

As to `Nc1ncnc2c1ncn2[C@@H]1O[C@H](COP(=O)(O)OP(=O)(O)OP(=O)(O)OP(=O)(O)OC[C@@H]2O[C@H](n3cnc4c(N)ncnc43)[C@@H](O)[C@H]2O)[C@@H](O)[C@H]1O`, the activation was inactive: 12.8% and inactive: -62.2%.

For the compound `COc1ccc(-n2c(CNC(=O)c3c(-c4ccccc4)noc3C)nnc2SC)cc1`, the activation is inactive: -16.2%.

Regarding `O=C(c1ccco1)N1CCC2(CC1)CCN(c1ncccn1)CC2`, the activation is inactive: -2.43%.

As to `O=C(c1ccncc1)N1CCC[C@@]2(CCN(c3ncccn3)C2)C1`, the activation was inactive: -14.8%.

As for `FC(F)(F)C(F)(F)C(F)(F)C(F)(F)C(F)(F)C(F)(F)C(F)(F)C(F)(F)Br`, the activation was inactive: 5.37%.

As for `CCOc1ccc(N=C(C)Nc2ccc(OCC)cc2)cc1`, the activation is inactive: -15%.

As for `CC(C)c1c(O)ccc2c1CCC1C(C)(C)CCC[C@@]21C` (stereo not given in full), the activation was inactive: -14.4%.

In the case of `CN1CCCC1c1cccnc1` (stereo not given), the activation is inactive: -2.74%.

Turning to `O=C(c1cnccn1)N1CCC2(CCN(Cc3cc(C(F)(F)F)cc(C(F)(F)F)c3)CC2)CC1`, the activation is inactive: -33.6%.

These data come from PubChem BioAssay AID1645887 (National Center for Advancing Translational Sciences (NCATS), 2021).
